Where a name gives a salt, the structure may show the parent alone. The full ranking holds about 1,900 compounds; the median of “cell viability of compound + 1 nM pemigatinib relative to pemigatinib-only (DMSO) wells” is about 0.95, and the lowest 2% start at about 0.22. The list shows a part of the results.

Experimental findings from the supplement of paper PMC9588766 are described below.

This experiment deals with PDC-DUC18828. The experiment can be described thus: cell viability of compound + 1 nM pemigatinib relative to pemigatinib-only (DMSO) wells (fraction); PDC-DUC18828 is a patient-derived cholangiocarcinoma cell line; higher = less growth inhibition. The following applies: first compound 1 µM; pemigatinib concentration 1 nM; 72 h. How it is done:
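Selleck Bioactive library screen in the patient-derived FGFR2 fusion-positive ICC cell line PDC-DUC18828 (500 cells/well). Each compound was tested at 1 uM with 1 nM pemigatinib, in triplicate, for 72 h. Viability was read by CellTiter-Glo and normalised to plate DMSO controls. Value is the paper's averaged normalised viability.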
Regarding `COc1ccc(CCc2nc3cc(-c4c(C)noc4C)ccc3n2C[C@H](C)N2CCOCC2)cc1Cl` + CCN1C(=O)N(c2c(F)c(OC)cc(OC)c2F)Cc2cnc3[nH]c(CN4CCOCC4)cc3c21 [pemigatinib], the cell viability stood at 0.913.

For the compound `O=C(O)c1cc2cccc([N+](=O)[O-])c2[nH]1` + CCN1C(=O)N(c2c(F)c(OC)cc(OC)c2F)Cc2cnc3[nH]c(CN4CCOCC4)cc3c21 [pemigatinib], the cell viability came to 0.912.

On to `CC(=O)C1=C(O)C=C2Oc3c(C(C)=O)c(O)c(C)c(O)c3C2(C)C1=O` (single isomer, unassigned; (+)) [(+)-Usniacin] + CCN1C(=O)N(c2c(F)c(OC)cc(OC)c2F)Cc2cnc3[nH]c(CN4CCOCC4)cc3c21 [pemigatinib], for which the cell viability stood at 1.06.

Consider `CNCc1ccc(-c2[nH]c3cc(F)cc4c3c2CCNC4=O)cc1` + CCN1C(=O)N(c2c(F)c(OC)cc(OC)c2F)Cc2cnc3[nH]c(CN4CCOCC4)cc3c21 [pemigatinib], for which the cell viability amounted to 0.958.

Turning to `CCCNC(C)C(=O)Nc1c(C)csc1C(=O)OC` (centres undefined) [Articaine HCl] + CCN1C(=O)N(c2c(F)c(OC)cc(OC)c2F)Cc2cnc3[nH]c(CN4CCOCC4)cc3c21 [pemigatinib], the cell viability came out at 0.942.

For the compound `CN(C)c1ccc(-c2nc3ncc(Cl)c(N4CCN(CC(=O)Nc5nccs5)CC4)c3[nH]2)cc1` + CCN1C(=O)N(c2c(F)c(OC)cc(OC)c2F)Cc2cnc3[nH]c(CN4CCOCC4)cc3c21 [pemigatinib], the cell viability turned out to be 1.02.

For `Oc1nc(-c2ccc(C(F)(F)F)cc2)nc2c1CSCC2` + CCN1C(=O)N(c2c(F)c(OC)cc(OC)c2F)Cc2cnc3[nH]c(CN4CCOCC4)cc3c21 [pemigatinib], the cell viability was determined as 0.919.

For the compound `Cc1nc2ccc(NC(=O)Nc3ccnc4cccnc34)cc2o1` + CCN1C(=O)N(c2c(F)c(OC)cc(OC)c2F)Cc2cnc3[nH]c(CN4CCOCC4)cc3c21 [pemigatinib], the cell viability came out at 0.964.

Consider `NC(=O)N1c2ccccc2CC(=O)c2ccccc21` [Oxcarbazepine] + CCN1C(=O)N(c2c(F)c(OC)cc(OC)c2F)Cc2cnc3[nH]c(CN4CCOCC4)cc3c21 [pemigatinib], for which the cell viability was found to be 0.963.

`NC1=NCC2c3ccccc3Cc3ccccc3N12` (centres undefined) [Epinastine HCl] + CCN1C(=O)N(c2c(F)c(OC)cc(OC)c2F)Cc2cnc3[nH]c(CN4CCOCC4)cc3c21 [pemigatinib]: the cell viability turned out to be 0.912.

With `O=C(c1ccc(F)cc1)N1CCC[C@H](c2nc(-c3ccc(F)cc3)no2)C1` + CCN1C(=O)N(c2c(F)c(OC)cc(OC)c2F)Cc2cnc3[nH]c(CN4CCOCC4)cc3c21 [pemigatinib], the cell viability came to 0.976.

As to `Cc1ccc(Cl)cc1N(CC(=O)Nc1c(F)cccc1F)S(C)(=O)=O` + CCN1C(=O)N(c2c(F)c(OC)cc(OC)c2F)Cc2cnc3[nH]c(CN4CCOCC4)cc3c21 [pemigatinib], the cell viability was 1.03.

For `CN(C)c1cc(NC(=O)CNC(C)(C)C)c(O)c2c1C[C@H]1C[C@H]3[C@H](N(C)C)C(O)=C(C(N)=O)C(=O)[C@@]3(O)C(O)=C1C2=O` [Tigecycline] + CCN1C(=O)N(c2c(F)c(OC)cc(OC)c2F)Cc2cnc3[nH]c(CN4CCOCC4)cc3c21 [pemigatinib], the cell viability was 1.01.

In the case of `CCNc1nc(Nc2cc(F)c(C(=O)N3CCOCC3)cc2OC)ncc1C(F)(F)F` + CCN1C(=O)N(c2c(F)c(OC)cc(OC)c2F)Cc2cnc3[nH]c(CN4CCOCC4)cc3c21 [pemigatinib], the cell viability amounted to 0.954.

Turning to `COc1cc(NS(=O)(=O)c2ccc(N)cc2)nc(OC)n1` [Sulphadimethoxine] + CCN1C(=O)N(c2c(F)c(OC)cc(OC)c2F)Cc2cnc3[nH]c(CN4CCOCC4)cc3c21 [pemigatinib], the cell viability is 1.01.

Turning to `CC1(C)O[C@@H]2[C@@H](CO[C@@]3(COS(N)(=O)=O)OC(C)(C)O[C@@H]23)O1` [Topiramate] + CCN1C(=O)N(c2c(F)c(OC)cc(OC)c2F)Cc2cnc3[nH]c(CN4CCOCC4)cc3c21 [pemigatinib], the cell viability came out at 0.979.

For the compound `O=C1N=C(O)NC1(c1ccccc1)c1ccccc1` [Phenytoin sodium] + CCN1C(=O)N(c2c(F)c(OC)cc(OC)c2F)Cc2cnc3[nH]c(CN4CCOCC4)cc3c21 [pemigatinib], the cell viability was 0.969.

Regarding `O=C1Nc2ccc(I)cc2/C1=C/c1cc(Br)c(O)c(Br)c1` + CCN1C(=O)N(c2c(F)c(OC)cc(OC)c2F)Cc2cnc3[nH]c(CN4CCOCC4)cc3c21 [pemigatinib], the cell viability turned out to be 0.92.

In the case of `O=C(NCCCNc1nc(Nc2cccc(NC(=O)N3CCCC3)c2)ncc1I)c1cccs1` + CCN1C(=O)N(c2c(F)c(OC)cc(OC)c2F)Cc2cnc3[nH]c(CN4CCOCC4)cc3c21 [pemigatinib], the cell viability worked out at 0.658.

`CN(Cc1ccc(C(C)(C)C)cc1)Cc1cccc2ccccc12` [Butenafine HCl] + CCN1C(=O)N(c2c(F)c(OC)cc(OC)c2F)Cc2cnc3[nH]c(CN4CCOCC4)cc3c21 [pemigatinib]: the cell viability was 0.87.

Take `Cc1cccc(-c2[nH]ncc2-c2ccc3ncccc3n2)n1` + CCN1C(=O)N(c2c(F)c(OC)cc(OC)c2F)Cc2cnc3[nH]c(CN4CCOCC4)cc3c21 [pemigatinib]: the cell viability was determined as 1.02.

`NS(=O)(=O)c1ccc(NC(=O)Nc2ccc(F)cc2)cc1` + CCN1C(=O)N(c2c(F)c(OC)cc(OC)c2F)Cc2cnc3[nH]c(CN4CCOCC4)cc3c21 [pemigatinib]: the cell viability turned out to be 0.902.

As to `S=c1[nH]cnc2nc[nH]c12` [Mercaptopurine (6-MP)] + CCN1C(=O)N(c2c(F)c(OC)cc(OC)c2F)Cc2cnc3[nH]c(CN4CCOCC4)cc3c21 [pemigatinib], the cell viability was found to be 0.976.

As to `O=c1[nH]c(=O)n([C@H]2C[C@H](O)[C@@H](CO)O2)cc1C(F)(F)F` [Trifluridine] + CCN1C(=O)N(c2c(F)c(OC)cc(OC)c2F)Cc2cnc3[nH]c(CN4CCOCC4)cc3c21 [pemigatinib], the cell viability is 0.952.

On to `Cn1cncc1[C@@](N)(c1ccc(Cl)cc1)c1ccc2c(c1)c(-c1cccc(Cl)c1)cc(=O)n2C` [Tipifarnib] + CCN1C(=O)N(c2c(F)c(OC)cc(OC)c2F)Cc2cnc3[nH]c(CN4CCOCC4)cc3c21 [pemigatinib], for which the cell viability is 0.915.

For the compound `Cc1cc(C#N)cc(C)c1Oc1nc(Nc2ccc(C#N)cc2)nc(N)c1Br` [Etravirine (TMC125)] + CCN1C(=O)N(c2c(F)c(OC)cc(OC)c2F)Cc2cnc3[nH]c(CN4CCOCC4)cc3c21 [pemigatinib], the cell viability came out at 0.915.

As for `Cc1cc(F)c(Nc2ncnc3cc(OCc4ccccc4)ccc23)cc1O` + CCN1C(=O)N(c2c(F)c(OC)cc(OC)c2F)Cc2cnc3[nH]c(CN4CCOCC4)cc3c21 [pemigatinib], the cell viability came to 0.9.

Turning to `O=C(NNc1ccccc1)c1ccncc1` + CCN1C(=O)N(c2c(F)c(OC)cc(OC)c2F)Cc2cnc3[nH]c(CN4CCOCC4)cc3c21 [pemigatinib], the cell viability was found to be 0.945.

On to `Cc1nc2c(O)cccc2c(=O)[nH]1` + CCN1C(=O)N(c2c(F)c(OC)cc(OC)c2F)Cc2cnc3[nH]c(CN4CCOCC4)cc3c21 [pemigatinib], for which the cell viability is 0.967.

As for `CC(C)n1cnc2c(NCCc3ccc(O)cc3)nc(-c3csc4ccccc34)nc21` [StemRegenin 1 (SR1)] + CCN1C(=O)N(c2c(F)c(OC)cc(OC)c2F)Cc2cnc3[nH]c(CN4CCOCC4)cc3c21 [pemigatinib], the cell viability came to 0.959.

`CCCCOc1ccc(OCCCN2CCOCC2)cc1` [Pramoxine HCl] + CCN1C(=O)N(c2c(F)c(OC)cc(OC)c2F)Cc2cnc3[nH]c(CN4CCOCC4)cc3c21 [pemigatinib]: the cell viability came out at 0.98.

In the case of `C[C@@H](O)[C@H]1C(=O)N2C(C(=O)OCOC(=O)C(C)(C)C)=C(SC3CN(C4=NCCS4)C3)[C@H](C)[C@H]12` [Tebipenem Pivoxil] + CCN1C(=O)N(c2c(F)c(OC)cc(OC)c2F)Cc2cnc3[nH]c(CN4CCOCC4)cc3c21 [pemigatinib], the cell viability was 0.997.

On to `CC1CCc2cc(F)cc3c(=O)c(C(=O)O)cn1c23` (centres undefined) [Flumequine] + CCN1C(=O)N(c2c(F)c(OC)cc(OC)c2F)Cc2cnc3[nH]c(CN4CCOCC4)cc3c21 [pemigatinib], for which the cell viability was 0.914.

As for `CC(C)c1nc(CN(C)C(=O)N[C@H](C(=O)N[C@@H](Cc2ccccc2)C[C@H](O)[C@H](Cc2ccccc2)NC(=O)OCc2cncs2)C(C)C)cs1` [Ritonavir] + CCN1C(=O)N(c2c(F)c(OC)cc(OC)c2F)Cc2cnc3[nH]c(CN4CCOCC4)cc3c21 [pemigatinib], the cell viability was determined as 0.994.

Regarding `COc1ccccc1OCCNCC(O)COc1cccc2[nH]c3ccccc3c12` (centres undefined) [Carvedilol] + CCN1C(=O)N(c2c(F)c(OC)cc(OC)c2F)Cc2cnc3[nH]c(CN4CCOCC4)cc3c21 [pemigatinib], the cell viability came out at 1.

As for `COc1ccc(-n2nc(C(N)=O)c3c2C(=O)N(c2ccc(N4CCCCC4=O)cc2)CC3)cc1` [Apixaban] + CCN1C(=O)N(c2c(F)c(OC)cc(OC)c2F)Cc2cnc3[nH]c(CN4CCOCC4)cc3c21 [pemigatinib], the cell viability came to 1.05.

Consider `COc1ccc(C(C)=O)c(O)c1` [Paeonol] + CCN1C(=O)N(c2c(F)c(OC)cc(OC)c2F)Cc2cnc3[nH]c(CN4CCOCC4)cc3c21 [pemigatinib], for which the cell viability was determined as 1.01.

Take `Nc1cccc(-c2cc3c(Oc4cccc(O)c4)ncnc3[nH]2)c1` + CCN1C(=O)N(c2c(F)c(OC)cc(OC)c2F)Cc2cnc3[nH]c(CN4CCOCC4)cc3c21 [pemigatinib]: the cell viability stood at 0.804.

As for `CC(C)[C@H]1CC[C@H](C(=O)N[C@H](Cc2ccccc2)C(=O)O)CC1` [Nateglinide] + CCN1C(=O)N(c2c(F)c(OC)cc(OC)c2F)Cc2cnc3[nH]c(CN4CCOCC4)cc3c21 [pemigatinib], the cell viability was 0.989.
